Data taken from publication PMC6212790.
The list shows a part of the results. At the low end of the ranking, values are background and their order means little.

target: T1, GST-Rok (full length) (UniProt O34857); test: protein binding microarray; settings: Rok is a gene silencer of Bacillus subtilis; high values mean tight binding; most listed sequences are background and not binding sites; double strand, one strand shown;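 further: rank score from −0.5 (least bound) to 0.5 (best bound)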
T1 sequence: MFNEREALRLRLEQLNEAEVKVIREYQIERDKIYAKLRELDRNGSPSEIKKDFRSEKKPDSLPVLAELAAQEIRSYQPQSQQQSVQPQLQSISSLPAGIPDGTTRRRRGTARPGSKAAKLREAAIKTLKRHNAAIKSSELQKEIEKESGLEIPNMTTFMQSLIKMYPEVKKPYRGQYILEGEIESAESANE

Sequence | binding signal
AAAGCGGG | -0.149 E-score
ATTGATGG | -0.113 E-score
ACTCGTGC | -0.0621 E-score
AGATGTAT | 0.213 E-score
CAGTGACA | 0.0193 E-score
GCCACCAC | -0.0789 E-score
CCGATCCC | -0.366 E-score
CAGCTTGC | -0.235 E-score
AGAGTTGC | -0.101 E-score
GGGCCGTA | -0.273 E-score
CAGATCGG | -0.0795 E-score
CCGCGAGG | -0.233 E-score
AATATAGG | 0.23 E-score
ATTCTCGA | 0.219 E-score
ACTTGAAC | -0.00106 E-score
TGTGCAAA | -0.00495 E-score
CTCGTGCA | -0.225 E-score
ACTTTGAA | -0.138 E-score
ATGCGTAA | 0.0991 E-score
ACTTCTTG | 0.0559 E-score
TAATAGCA | 0.257 E-score
GCGCGCAA | -0.00946 E-score
CACGGTTA | 0.0748 E-score
GATCGCAC | -0.158 E-score
GGACTTAA | -0.0264 E-score

Sequence | binding signal
ATTGAGCA | 0.0511 E-score
TATGTGGA | 0.273 E-score
AGCTCCAG | -0.0852 E-score
CATGTTCG | -0.0614 E-score
AATTGTAG | 0.28 E-score
CGTCATCC | -0.186 E-score
CGTCTAGA | 0.132 E-score
GATATGAC | 0.103 E-score
GATAGATC | 0.273 E-score
AAGACGTA | 0.132 E-score
CTCATCTC | -0.186 E-score
AGTGAAAA | 0.131 E-score
CTTTCAGA | -0.196 E-score
ACAGGGGT | -0.0286 E-score
GTGAACCA | -0.186 E-score
CTAGAGCA | -0.0577 E-score
GAAGTCCC | -0.124 E-score
AACAAAAT | 0.205 E-score
AGTTGTTC | 0.0176 E-score
CGTCGCAG | -0.155 E-score
GACGAGGA | -0.222 E-score
GGAGGCCA | -0.244 E-score
ATCCGCCG | -0.169 E-score
ACTGATGA | -0.123 E-score
AGGATCTG | -0.167 E-score

Sequence | binding signal
CTCCGGGC | -0.332 E-score
GCTGTCAA | -0.167 E-score
GCCTTTAC | -0.196 E-score
ACTTATAG | 0.306 E-score
GAATGGTA | 0.317 E-score
ATGAGGGG | -0.315 E-score
AGCGCAGG | -0.254 E-score
GTGCCAAC | -0.125 E-score
GGGGGGTA | -0.186 E-score
GAAACGTA | 0.149 E-score
GCTGGCCC | -0.295 E-score
AAGAAATA | 0.0744 E-score
AAAGGAGG | -0.252 E-score
GACCCATA | -0.0594 E-score
ACCATTCT | 0.117 E-score
AGCGGCAT | 0.0125 E-score
CGATAAAA | 0.2 E-score
AAGACTAG | 0.182 E-score
ATTTACTA | 0.459 E-score
AGTTGTTA | 0.28 E-score
AATACAGT | 0.134 E-score
AGAACTTA | 0.108 E-score
CTCGGACC | -0.195 E-score
GCTCAGCA | -0.208 E-score
CAGCTGTA | 0.0605 E-score

Sequence | binding signal
CTAGAGAC | -0.0944 E-score
TGAAATCA | -0.119 E-score
ATGACCCG | -0.204 E-score
GCGGCCCA | -0.286 E-score
ACTCTGTC | -0.00833 E-score
AATGCACA | 0.194 E-score
AGAATATC | 0.235 E-score
AATTTTAT | 0.273 E-score
CCATTTCG | 0.14 E-score
CCAACTCG | 0.0115 E-score
TCATAGCA | 0.124 E-score
CCTCTCTA | -0.198 E-score
CCTGGTAC | -0.125 E-score
AAACCGTG | -0.0444 E-score
CACAAGCC | -0.252 E-score
GTATTAAC | 0.306 E-score
TAGTTCGA | 0.304 E-score
TATATACA | 0.409 E-score
ACGATAAA | 0.125 E-score
AGTGGCAA | 0.121 E-score
CATATCGC | 0.0296 E-score
TAAAGTGA | -0.0576 E-score
CGCATCTA | 0.176 E-score
ACCTTACG | 0.0118 E-score
CACGCGCA | -0.0652 E-score

Sequence | binding signal
ATAGCCTG | -0.114 E-score
CCATATTA | 0.165 E-score
GTCGCTGA | -0.114 E-score
GCTAGGAA | -0.0893 E-score
CAAATGAC | -0.0653 E-score
AAAGCCGC | -0.123 E-score
CATGCAGC | -0.295 E-score
AAGCGCCC | -0.27 E-score
CAAAGTCC | -0.187 E-score
AGACGCTA | 0.0167 E-score
AATGACTC | 0.0144 E-score
CGACGAAG | -0.102 E-score
AGGGGGCC | -0.37 E-score
AGACCTTA | -0.0393 E-score
AGCGATTG | -0.233 E-score
ATGTCTTA | 0.15 E-score
AACCCTGC | -0.208 E-score
GCCGAACA | -0.21 E-score
ACATTTAC | 0.313 E-score
GCAGGTTA | -0.111 E-score
AAAGGACG | -0.149 E-score
CAGGAATC | -0.103 E-score
TCGAGTAA | 0.229 E-score
CCGAGACG | -0.232 E-score
CAGACTGA | -0.28 E-score

Sequence | binding signal
AGAGAGGA | -0.127 E-score
ATGGATCC | -0.144 E-score
GGCAGAAA | 0.149 E-score
TGAATAAA | -0.0237 E-score
CATTAGAC | 0.00419 E-score
ATACGTCG | 0.19 E-score
GGCCACCC | -0.269 E-score
CTCAAAAC | 0.114 E-score
AAATCAAG | 0.0466 E-score
TCATTTAA | 0.0863 E-score
TACATATA | 0.347 E-score
CCCACAAA | 0.0704 E-score
TAATACAA | 0.292 E-score
CATGCTCG | -0.0311 E-score
TGTACAAA | 0.298 E-score
AGGGTGAT | -0.196 E-score
AGAGAGGG | -0.274 E-score
ATACCCAA | 0.175 E-score
AATTTGAT | 0.218 E-score
GCTGCCAC | -0.293 E-score
AATTTTAC | 0.355 E-score
ATAGGGGA | -0.193 E-score
AGTCATAT | 0.12 E-score
AGATACTC | 0.155 E-score
AAACGGTC | -0.0754 E-score

Sequence | binding signal
GCCGCTCA | -0.181 E-score
CTTCGGAC | -0.193 E-score
AGGAACTC | -0.176 E-score
AACCGAGC | -0.237 E-score
GAGCCGAC | -0.322 E-score
GAACCCAC | -0.132 E-score
AGGAGTTG | -0.227 E-score
CATAACAA | 0.204 E-score
CACTGGGG | -0.3 E-score
AAGCTACT | 0.192 E-score
CGGGTCCC | -0.238 E-score
ACATGTTA | 0.242 E-score
CCGCTTGC | -0.0959 E-score
AAGCAGTA | 0.136 E-score
CAACTTAG | 0.125 E-score
ATCCACCC | -0.015 E-score
GAGCTAAA | -0.0123 E-score
GAGTATGC | -0.0101 E-score
CACAAAGC | 0.0266 E-score
GATGGACA | -0.171 E-score
CACACAGC | 0.127 E-score
CCGTAGAG | -0.0885 E-score
